Data: PubChem BioAssay (NCI)
Several values for one entry are separate records, joined by “and”; a condition that tells them apart may be missing. Equal values may be shown once.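 Results reflect a 48-hour exposure of cells in 96-well plates to compound at five concentrations. At the GI50, growth is halved. Definition used: TGI = concentration required for complete inhibition of growth.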 Numbered stars: 1 amine (or outer) side, 2 acyl side, 3 side chain; on linkers, the order of the positions; unused ones are H or OH. Bridge positions count the residues as written; N and C are the ends. Square brackets hold non-standard residues; d marks the D form. Peptide text beside a SMILES is read from it. * marks the point of attachment. Phe(3-Me) = Cc1cccc(C[C@H](N)C(=O)O)c1; NH(4-Cl-2-F-phenyl) = Fc1cc(Cl)ccc1N*; Pro(4R-Me) = C[C@H]1CN[C@H](C(=O)O)C1; Hyp = O=C(O)[C@@H]1C[C@@H](O)CN1; aThr = C[C@H](O)[C@H](N)C(=O)O; Pip = O=C(O)[C@@H]1CCCCN1; CO = O=C([*:1])[*:2]

system: NCI-H322M lung; assay: NCI anticancer screen, dose series, 48 h

Row | SMILES | GI50 | TGI
1 | COc1cccc(/C=C/C(=O)c2cc3c(N)c(C(=O)Nc4cccc(Cl)c4C)sc3nc2C)c1 | 1.65 µM | > 24.7 µM
2 | CCOC(=O)NNC1(SC)NC(=O)c2c(cc(Cl)oc2=O)O1 (configuration not stated) | – | 23.5 µM
3 | CC1=NN(C(=O)CC(=O)Nc2cccc(Cl)c2)C(=O)C1N=Nc1ccc(S(=O)(=O)c2ccc(N=NC3C(=O)N(C(=O)CC(=O)Nc4cccc(Cl)c4)N=C3C)cc2)cc1 (configuration not stated) | – | > 100 µM
4 | NC(=O)C1=C(c2ccccc2)c2ccccc2C1=O | – | 37.8 µM
5 | Cc1ccnc2c1c(=O)c1ccccc1n2C | – | > 100 µM
6 | COC1CC(OS(=O)(=O)c2ccc(C)cc2)C(OS(=O)(=O)c2ccc(C)cc2)C(COS(=O)(=O)c2ccc(C)cc2)O1 (configuration not stated) | – | > 100 µM
7 | c1cncc(CNc2ccccc2-c2nnc(Nc3ccc4c(c3)OCCO4)o2)c1 | 1.99 µM | > 100 µM
8 | CCCCN(CCCC)c1ccc(N=Nc2ccc(S(=O)(=O)O)cc2)cc1 | – | 68.6 µM
9 | Cn1c2ccc([N+](=O)[O-])cc2c(=O)c2c(O)cc(O)cc21 | – | > 100 µM
10 | N#CSCC1CC(O)(c2ccccc2)C(c2ccccc2)C(c2ccc(F)cc2)O1 (configuration not stated) | 4.28 µM | 24.2 µM
11 | COc1ccc2c(-c3ccc(O)cc3)c(Oc3ccccc3)c(=O)oc2c1 | – | > 49.1 µM
12 | CCOC(=O)[C@@H](C)C[C@H](Cc1ccccc1)NC(=O)c1csc([C@@H](C[C@H](C(C)C)N(C)C(=O)[C@H](CCC(C)C)NC(=O)[C@H]2CCCCN2C)OC(C)=O)n1 | 0.0124 µM | 11.4 µM
13 | C=C(CN1CCN(c2ccccc2F)CC1)c1ccc(C(=O)Nc2ccccc2N)cc1 | 5 µM | > 100 µM
14 | Cc1cccc(C[C@H](NC(=O)Nc2ccc(Cl)cc2F)C(=O)N[C@@H]2C(=O)N3C[C@H](O)C[C@H]3C(=O)N3CCCC[C@H]3C(=O)N[C@@H](C)C(=O)N3C[C@H](C)C[C@H]3C(=O)O[C@H]2C)c1 ({NH(4-Cl-2-F-phenyl)-CO}-[Phe(3-Me)][aThr][Hyp][Pip]A[Pro(4R-Me)]; ester 2-C) | 0.967 µM | 4.29 µM
15 | O=C(Nc1cc(Cl)ccc1O)c1cccc(NC2=C(Cl)C(=O)N(Cc3ccccc3)C2=O)c1 | > 100 µM | > 100 µM
16 | NC1CCC[C@@H](O)[C@H]1O (some centres not stated) | – | > 100 µM
17 | COc1cccc2c1C(=O)c1ccc3cc(CO)cc(O)c3c1C2=O | – | 4.62 µM
18 | O=C1NC(N/N=C/C(O)C(O)C(O)C(O)CO)=N/C1=C\c1cccs1 (configuration not stated) | – | > 100 µM
19 | CCOC(=O)C(Cc1c[nH]c2cc([N+](=O)[O-])ccc12)(NC(C)=O)C(=O)OCC | > 1000 µM | > 1000 µM
20 | CCN(CC)C(=S)N/N=C(\C)c1ccccc1O | – | > 100 µM
21 | CC1(C)N=C(N)N=C(N)N1c1ccc(CCCCc2ccc(Cl)cc2Cl)cc1 | – | 16.1 µM
22 | COc1ccc(/C=C(\C#N)c2cc(OC)c3c(c2)OCO3)cc1 | 0.071 µM | > 73.2 µM
23 | CN(C)CCCn1c2c3ccccc3ccc2c2oc(=O)c3ccccc3c21 | – | 17.8 µM
24 | CC(=S)NNC(=O)c1ccncc1 | – | > 100 µM

Row | SMILES | GI50 | TGI
25 | CCOc1cc2ncc(C#N)c(Nc3ccc(F)c(Cl)c3)c2cc1NC(=O)/C=C/CN(C)C | 0.0206 µM | > 10 µM
26 | CCC(/C=C/c1ccccc1)=N\NC(=S)N/N=C(/C=C/c1ccccc1)CC | – | > 100 µM
27 | CSCCCNC(=O)c1csc([C@@H](CSC)NC(=O)CCNC(=O)[C@@H](NC(=O)OCC(Br)(Br)Br)C(C)O)n1 (some centres not stated) | – | > 100 µM
28 | Cl.Fc1c[c-]c(-c2ccccn2)c(F)c1.[Pt].c1ccc([PH+](CC[PH+](c2ccccc2)c2ccccc2)c2ccccc2)cc1 | 0.0744 µM | 1.06 µM
29 | CC[O-].CC[O-].O=Nc1ccc2cc([O-])ccc2c1.O=Nc1ccc2cc([O-])ccc2c1.[Ti+4] | 1.91 µM | 4.45 µM
30 | CC1(C)OC2CN(C(=O)OCc3ccccc3)C(CO)C2O1 (configuration not stated) | – | > 100 µM
31 | CO/N=C1/NC(=O)/C(=C/c2ccc3ncccc3c2)S1 | 7.07 µM | > 22.5 µM
32 | FC(F)(F)C1(C(F)(F)F)OC(Cl)(Cl)C(Cl)(Cl)O1 | – | > 10 µM
33 | CN1CCN(Cc2ccc(NC(=O)c3[nH]ncc3Nc3ncnc4c3CCC4)cc2)CC1 | 1.93 µM | 10.7 µM
34 | Nc1ccccc1Sc1ccc(Cl)cc1 | – | > 100 µM
35 | Cc1ccc2c(=O)[nH]sc2c1 | – | > 100 µM
36 | CCOC(=O)NC(=O)c1cn(CCCOC(=O)CCCCCCCCC(=O)OCCCn2cc(C(=O)NC(=O)OCC)c(=O)[nH]c2=O)c(=O)[nH]c1=O | – | 93.9 µM
37 | O=[N+]([O-])/C(C(Cl)=C(Cl)Cl)=C(/Sc1ccccc1)N1CCOCC1 | – | 33.9 µM
38 | O=C(c1cc(-c2cc3c(cc2C(=O)N2Cc4ccccc4C[C@H]2CN2CCOCC2)OCO3)n2c1CCCC2)N(c1ccccc1)c1ccc(O)cc1 | 20.7 µM | > 100 µM
39 | CC(=O)Oc1cccc2c1C(=O)C(Br)(Br)CCC2 | – | 31.4 µM
40 | COc1ccc(C=NC23CC4CC(CC(C4)C2)C3)cc1 | – | > 100 µM
41 | COC(=O)c1ccc(NCC2=CC(=O)c3ccccc3C2=O)cc1 | – | 35.7 µM
42 | N#CC(C#N)=CN1CCN(C(=O)c2ccccc2)C1=S | 33.4 µM | 98.3 µM
43 | Cc1ccc(-c2c(C#N)c(S)n(NS(=O)(=O)c3ccccc3)c(=O)c2C#N)cc1 | – | > 100 µM
44 | CC1C=C(NCC2(CO)CCC2)NC(N)=N1 (configuration not stated) | – | > 100 µM
45 | COc1cc2c(cc1OC)[C@@H](C(O)c1ccccc1)NCC2 (some centres not stated) | – | > 100 µM
46 | COc1cc(-c2cn(-c3ccc(Cl)cc3)c(=O)[nH]2)cc(OC)c1OC | > 100 µM | > 100 µM
47 | O=C1NC2(O)c3ccccc3C(=O)C2(O)N1c1ccccc1 (configuration not stated) | – | > 100 µM
48 | O=C(/C=C/c1ccc(Cl)c(Cl)c1)CCN1CCN(CCC(=O)/C=C/c2ccc(Cl)c(Cl)c2)CC1 | – | > 100 µM

Row | SMILES | GI50 | TGI
49 | CCN(CC)CCCC(C)Nc1cnc(C(=O)Nc2cc(F)cc3cccnc23)cn1 (configuration not stated) | 10.8 µM and 1.69 µM | 22.7 µM and 3.16 µM
50 | COc1ccc(C(=O)/C=C/c2cc(C(=O)c3cc(OC)c(OC)c(OC)c3)ccc2OC)cc1 | > 100 µM | > 100 µM
51 | N#CC1(c2nc3ccccc3o2)C(=O)C(=O)N(c2ccc(Cl)c(Cl)c2)C(=O)C1=O | – | > 100 µM
52 | CCOC(=O)NC(N(C)C(C(C)C)P(=O)(OCC)OCC)(C(F)(F)F)C(F)(F)F (configuration not stated) | – | > 100 µM
53 | COc1ccc(C2c3cc4c(cc3OC(N3CCOCC3)C2C)OCO4)c(OC)c1 (configuration not stated) | – | 58.8 µM
54 | O=C1CNc2cc(N3CCN(c4cccc(C(F)(F)F)c4)CC3)ccc2N1 | – | > 100 µM
55 | NNC(=O)CCCCCCCC(=O)O | – | > 100 µM
56 | Cc1ccc(S(=O)(=O)OCC23CCC(C4CC42)C2CC23)cc1 (configuration not stated) | – | > 100 µM
57 | N#C[C@](CO)(NC(=O)OCc1ccccc1)C(F)F | – | > 100 µM
58 | CCOC(=O)C#Cc1ccc(C#CC(=O)OCC)cc1 | – | > 37.6 µM
59 | Cc1ccc(NC(=S)NNC(=O)c2cc(-c3ccccc3)nc3ccccc23)cc1C | – | 84.8 µM
60 | O=C(N/N=C/c1ccc(O)cc1O)c1ccc(Nc2ccnc(C(F)(F)F)c2)cc1 | 0.821 µM | > 43.9 µM
61 | Fc1ccc(-c2nnc3sc(-c4cccc(Cl)c4)nn23)cc1Cl | > 100 µM | > 100 µM
62 | CCO[C@H]1C[C@@H](c2ccccc2)[C@]2(C)C[C@H](C(=O)OC)ON2O1 | – | > 100 µM
63 | CC(=O)/C=C/c1c[nH]c(=O)[nH]c1=O | – | 347 µM
64 | CO/N=C1/C(n2[nH]c(=O)n(-c3ccccc3)c2=O)C2C=CC1n1c(=O)n(-c3ccccc3)c(=O)n12 (configuration not stated) | – | > 100 µM
65 | CN(C)CCCNC(=O)CNC(=O)c1cc(NC(=O)c2cc(NC(=O)c3cc(NC(=O)CCNC(=O)c4cc(NC(=O)c5cc(NC(=O)c6nccn6C)cn5C)cn4C)cn3C)cn2C)cn1C | – | > 100 µM
66 | C/C=C/OC1C(C2COC(C)(C)O2)OC2OC(C)(C)OC21 (configuration not stated) | – | > 100 µM
67 | COc1ccc(NC(C)=O)c(C(=O)CCNC(C)=O)c1 | – | > 100 µM
68 | O=C(O)c1ccc(NS(=O)(=O)c2cccc3cccnc23)cc1 | > 100 µM | > 100 µM
69 | C=CCN1C(=O)/C(=C/c2cccs2)N=C1SC1OC(COC(=O)c2ccccc2)C(OC(=O)c2ccccc2)C1OC(=O)c1ccccc1 (configuration not stated) | – | > 100 µM
70 | COc1ccccc1/C=C1/Sc2scc(CC(=O)Nc3ccccc3)[n+]2C1=O | – | > 100 µM
71 | COC(=O)[C@H]1ON2O[C@@H](O[C@H]3CCCC[C@@H]3C(C)(C)c3ccccc3)C[C@@H]3CC[C@H]1[C@@]32C | – | > 100 µM
72 | COc1ccc2nc(NC(=O)C(=O)CC(=O)c3ccc(Cl)cc3)sc2c1 | – | > 100 µM

Row | SMILES | GI50 | TGI
73 | COc1ccc(S(=O)Cc2cc(OC)ccc2OC)cc1 (configuration not stated) | – | > 100 µM
74 | COc1cc(/C=C2\CCc3cc(OC)c(OC)cc3C2=O)cc(OC)c1 | – | > 100 µM
75 | Cc1c(C(=O)CC(=O)C(=O)Nc2cccc(C(F)(F)F)c2)[n+](=O)c2ccccc2n1[O-] | – | 8.11 µM
76 | O=C(N/N=C/c1cc(Br)cc(Br)c1[O-])c1ccccc1O.O=C(N/N=C/c1cc(Br)cc(Br)c1[O-])c1ccccc1O.[Mn+2] | – | 20.8 µM
77 | CSc1cc(Cl)c(C)cc1S(=O)(=O)NC(=O)NNc1ccccn1 | – | > 100 µM
78 | CC(=O)NC1CCC(NC(=O)OC(C)(C)C)C(NC(=O)OC(C)(C)C)C1 (configuration not stated) | – | > 100 µM
79 | Cc1nn2c(/C=C3/C(=O)Nc4ccccc43)c(-c3ccc(Cl)cc3)nc2s1 | 12.6 µM | 48.1 µM
80 | O=C(c1ccco1)N1CCN(C(=O)c2ccco2)C1=S | – | 32.9 µM
81 | Cc1nn2c(/C=C3/C(=O)Nc4ccc(Cl)cc43)c(-c3ccccc3)nc2s1 | 3.97 µM | 17.6 µM
82 | CN(C)CC#Cc1cccc(C(=O)c2cnn(-c3ccc(F)cc3)c2N)c1 | > 25 µM | > 25 µM
83 | COC(=O)CC1(O)C(C=C(C)C)C(C(=O)OC)C(=O)C(C(=O)OC)C1C(=O)OC (configuration not stated) | – | > 100 µM
84 | O=C(Nc1nccs1)c1cc(C2=CC=CC([N+](=O)[O-])C=C2)nc(=S)[nH]1 (configuration not stated) | – | > 100 µM
85 | CCCCCC(/C=N/NC(N)=S)C(O)(C(F)(F)F)C(F)(F)F (configuration not stated) | – | > 10 µM
86 | OCCCN(CCc1ccc(Cl)c(Cl)c1)CCN1CCCC1 | – | > 100 µM
87 | CCC(C)/C=C(C)/C=C/C(=O)c1c(O)c(-c2ccc(O)cc2)c[nH]c1=O (configuration not stated) | 3.26 µM | 16.3 µM
88 | CCc1nc2ccc(Cc3ccc(C(=O)NO)cc3)cc2c(=O)n1CCc1ccccc1 | 2.13 µM | 7.99 µM
89 | O=c1[nH]nc2c3c(cccc13)NC(CN1Cc3ccccc3C1)=N2 | 55.3 µM | > 100 µM
90 | O=C(Nc1ccc2oc(=O)c(C(=O)O)cc2c1)Oc1ccccc1 | – | > 100 µM
91 | CC1=CC[C@H](C)C(C)(C)C1/C=C/C(C)=C/CC[C@@]1(CO)[C@H](CCCO)/C(=C(/C)C=O)CC[C@]1(C)O (some centres not stated) | – | 28.4 µM
92 | COc1ccc(/C=N/n2c(Cc3ccc(Cl)cc3)n[nH]c2=O)cc1 | – | > 100 µM
93 | C[C@@H]1CCN(C(=O)CC#N)C[C@@H]1N(C)c1ncnc2[nH]ccc12 | 75.4 µM | > 100 µM
